In the supplement of paper PMC4604168 (melanoma cell lines):
The list shows a part of the results. Most values come without repeats; read them as rough.

What follows are molecules tested on A375 (assay: cell count relative to DMSO control; melanoma cells; higher = more viable cells). Settings: library dose: standard library concentration; 72 h.
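Also: cells treated in 1,536-well plates, then fixed and DAPI-stained, with nuclei counted from automated high-throughput microscope images.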

Q: With `C#Cc1cccc(Nc2ncnc3cc(OCCOC)c(OCCOC)cc23)c1` [erlotinib] + N#Cc1c(O)c2c(-c3ccc(-c4ccccc4O)cc3)csc2[nH]c1=O [A769662] (first compound 4 µM, partner dose 10 µM) as the molecule, how does the cell count read?
A: Its cell count is 115%.

Q: Which cell count does the source give for `Cn1c(Nc2ccc(C(F)(F)F)cc2)nc2cc(Oc3ccnc(-c4ncc(C(F)(F)F)[nH]4)c3)ccc21` + O=C1NC(=O)/C(=C/c2ccc(-c3ccc(F)cc3O)o2)S1 [AS252424] (first compound 0.4 µM, partner dose 5 µM) here?
A: The cell count was 67.8%.

Q: How did the cell count turn out when `OCc1c[nH]c2ccccc12` [Indole-3-carbinol] + Oc1cc(-c2nc(-c3ccccc3)[nH]c2-c2ccncc2)ccc1Cl [L779450] (first compound 4 µM, partner dose 1 µM) was run?
A: The cell count was 88.6%.

Q: `COCC[n+]1c2c(n(Cc3cnccn3)c1C)C(=O)c1ccccc1C2=O` + Oc1cc(-c2nc(-c3ccccc3)[nH]c2-c2ccncc2)ccc1Cl [L779450] (first compound 0.002 µM, partner dose 1 µM) was tested. Which cell count did it give?
A: Its cell count is 77.9%.

Q: With `Cn1c(Nc2ccc(C(F)(F)F)cc2)nc2cc(Oc3ccnc(-c4ncc(C(F)(F)F)[nH]4)c3)ccc21` + Cn1cc(/C=C2\C(=O)Nc3cccnc32)c2ccccc21 [GW441756] (first compound 0.4 µM, partner dose 2 µM) as the molecule, how does the cell count read?
A: Its cell count is 48.3%.

Q: How did the cell count turn out when `O=C(CCCCCCC(=O)Nc1ccccc1)NO` [vorinostat] + COc1ccc(-c2ccc3c(N4CCOCC4)nc(N4C[C@@H](C)O[C@@H](C)C4)nc3n2)cc1CO [KU0063794] (first compound 0.4 µM, partner dose 0.1 µM) was run?
A: The cell count was 107%.
